Patent US9763922B2 (priority 2014, dated 2017)

Tested on: MYC
Assay: cells
Conditions: Homo sapiens, MV4-11, 4 h, read-out: Myc IC50 (μM)

In order of rising IC50:
1. CNC(=O)N1CCc2c(c(N3CCN(C)c4cc(-c5cnn(C)c5)c(C#N)cc43)nn2C2CCOCC2)C1 [Example 262, 3-[7-cyano-4-methyl-6-(1-methylpyrazol-4-yl)-2,3-dihydroquinoxalin-1-yl]-N-methyl-1-tetrahydropyran-4-yl-6,7-dihydro-4H-pyrazolo[4,3-c]pyridine-5-carboxamide]  0.005 µM
2. CNC(=O)N1CCc2c(c(N3CCCc4cc(-c5cnn(C)c5)c(C(F)F)cc43)nn2[C@@H]2CCO[C@H](C)C2)C1 [Example 339, (R,R)-3-[7-(difluoromethyl)-6-(1-methylpyrazol-4-yl)-3,4-dihydro-2H-quinolin-1-yl]-N-methyl-1-(2-methyltetrahydropyran-4-yl)-6,7-dihydro-4H-pyrazolo[4,3-c]pyridine-5-carboxamide]  0.006 µM
3. CNC(=O)N1CCc2c(c(N3CCCc4cc(-c5cnn(C)c5)c(C(F)F)cc43)nn2[C@H]2CCO[C@@H](C)C2)C1 [Example 338, (S,S)-3-[7-(difluoromethyl)-6-(1-methylpyrazol-4-yl)-3,4-dihydro-2H-quinolin-1-yl]-N-methyl-1-(2-methyltetrahydropyran-4-yl)-6,7-dihydro-4H-pyrazolo[4,3-c]pyridine-5-carboxamide]  0.008 µM
4. CNC(=O)N1CCc2c(c(N3CCCc4cc(-c5ccnc(OC)c5)c(C(F)F)cc43)nn2C2CCOCC2)C1 [Example 249, 3-[7-(difluoromethyl)-6-(2-methoxy-4-pyridyl)-3,4-dihydro-2H-quinolin-1-yl]-N-methyl-1-tetrahydropyran-4-yl-6,7-dihydro-4H-pyrazolo[4,3-c]pyridine-5-carboxamide]  0.011 µM
5. CC(=O)N1CCc2c(c(N3CCCc4cc(-c5cnn(C)c5)c(C(F)F)cc43)nn2C2CCN(CC(F)(F)F)CC2)C1 [Example 346, 1-[3-[7-(difluoromethyl)-6-(1-methylpyrazol-4-yl)-3,4-dihydro-2H-quinolin-1-yl]-1-[1-(2,2,2-trifluoroethyl)-4-piperidyl]-6,7-dihydro-4H-pyrazolo[4,3-c]pyridin-5-yl]ethanone]  0.012 µM
6. CC(=O)N1CCc2c(c(N3CCCc4cc(-c5cnn(C)c5)c(OC(F)(F)F)cc43)nn2C2CCOCC2)C1 [Example 247, 1-[3-[6-(1-methylpyrazol-4-yl)-7-(trifluoromethoxy)-3,4-dihydro-2H-quinolin-1-yl]-1-tetrahydropyran-4-yl-6,7-dihydro-4H-pyrazolo[4,3-c]pyridin-5-yl]ethanone]  0.018 µM
7. CC(=O)N1CCc2c(c(N3CC[C@H](C)c4cc(-c5cnn(C)c5)c(C(F)F)cc43)nn2C2CCOCC2)C1 [Example 238, (S)-1-[3-[7-(difluoromethyl)-4-methyl-6-(1-methylpyrazol-4-yl)-3,4-dihydro-2H-quinolin-1-yl]-1-tetrahydropyran-4-yl-6,7-dihydro-4H-pyrazolo[4,3-c]pyridin-5-yl]ethanone]  0.028 µM
8. CNC(=O)N1CCc2c(c(N3CCOc4cc(-c5cnn(C)c5)c(C#N)cc43)nn2C2CCOCC2)C1 [Example 275, 3-[6-cyano-7-(1-methylpyrazol-4-yl)-2,3-dihydro-1,4-benzoxazin-4-yl]-N-methyl-1-tetrahydropyran-4-yl-6,7-dihydro-4H-pyrazolo[4,3-c]pyridine-5-carboxamide]  0.046 µM
9. CC(=O)N1CCc2c(c(N3CCCc4cc(-c5cccnc5)c(C#N)cc43)nn2C2CCOCC2)C1 [Example 281, (R)-1-[3-[2,6-difluoro-3-(1-methylpyrazol-4-yl)anilino]-1-tetrahydrofuran-3-yl-6,7-dihydro-4H-pyrazolo[4,3-c]pyridin-5-yl]ethanone]  0.062 µM
10. Cn1cc(-c2cc3c(cc2OC(F)F)N(c2nn(C4CCOCC4)c4c2CN(C(N)=O)CC4)CCC3)cn1 [Example 152, 3-[7-(difluoromethoxy)-6-(1-methylpyrazol-4-yl)-3,4-dihydro-2H-quinolin-1-yl]-1-tetrahydropyran-4-yl-6,7-dihydro-4H-pyrazolo[4,3-c]pyridine-5-carboxamide]  0.072 µM
11. CC(=O)N1CCc2c(c(Nc3ccc(-c4cnn(C)c4)cc3F)nn2C2(C)CCOC2)C1 (stereo not shown) [Example 277, 1-[3-[7-(1-methylpyrazol-4-yl)-6-(trifluoromethyl)-2,3-dihydro-1,4-benzoxazin-4-yl]-1-tetrahydropyran-4-yl-6,7-dihydro-4H-pyrazolo[4,3-c]pyridin-5-yl]ethanone]  0.08 µM
12. COc1cc(-c2ccc3c(c2)CCCN3c2nn(C3CCOCC3)c3c2CN(C(C)=O)CC3)ccn1 [Example 60, 1-[3-[6-(2-methoxy-4-pyridyl)-3,4-dihydro-2H-quinolin-1-yl]-1-tetrahydropyran-4-yl-6,7-dihydro-4H-pyrazolo[4,3-c]pyridin-5-yl]ethanone]  0.089 µM
13. CC(=O)N1CCc2c(c(N3CCC(C)c4cc(-c5cnn(C)c5)c(Cl)cc43)nn2[C@H]2CCOC2)C1 (stereo partly drawn) [Example 102, 1-[3-[7-chloro-4-methyl-6-(1-methylpyrazol-4-yl)-3,4-dihydro-2H-quinolin-1-yl]-1-((S)-tetrahydrofuran-3-yl]-6,7-dihydro-4H-pyrazolo[4,3-c]pyridin-5-yl]ethanone]  0.154 µM
14. CC(=O)N1CCc2c(c(N3CCc4cc(-c5cn(C)nc5C(F)(F)F)ccc43)nn2C2COC2)C1 [Example 181, 1-[3-[5-[1-methyl-3-(trifluoromethyl)pyrazol-4-yl]indolin-1-yl]-1-(oxetan-3-yl)-6,7-dihydro-4H-pyrazolo[4,3-c]pyridin-5-yl]ethanone]  0.188 µM
15. CC(=O)N1CCc2c(c(Nc3ccc(-c4cn(C)nc4C(F)F)cc3F)nn2[C@H]2CCOC2)C1 [Example 306, (S)-1-[3-[4-[3-(difluoromethyl)-1-methyl-pyrazol-4-yl]-2-fluoro-anilino]-1-tetrahydrofuran-3-yl-6,7-dihydro-4H-pyrazolo[4,3-c]pyridin-5-yl]ethanone]  0.21 µM
16. CC(=O)N1CCc2c(c(N3CCC(C)c4cc(-c5cnn(C)c5)c(C#N)cc43)nn2[C@H]2CCOC2)C1 (stereo in doubt) [Example 103, 1-(5-acetyl-1-tetrahydrofuran-3-yl-6,7-dihydro-4H-pyrazolo[4,3-c]pyridin-3-yl)-4-methyl-6-(1-methylpyrazol-4-yl)-3,4-dihydro-2H-quinoline-7-carbonitrile]  0.224 µM
17. CCC1CN(c2nn(C3CCOC3)c3c2CN(C(C)=O)CC3)c2ccc(-c3cnn(C)c3)cc21 (stereo not shown) [Example 200, 1-[3-[3-ethyl-5-(1-methylpyrazol-4-yl)indolin-1-yl]-1-tetrahydrofuran-3-yl-6,7-dihydro-4H-pyrazolo[4,3-c]pyridin-5-yl]ethanone]  0.228 µM
18. CC(=O)N1CCc2c(c(N3CCCc4cc(-c5cnn(C)c5)c(C(F)F)cc43)nn2C2CCOC2)C1 (stereo not shown) [Example 123, 1-[3-[7-(difluoromethyl)-6-(1-methylpyrazol-4-yl)-3,4-dihydro-2H-quinolin-1-yl]-1-tetrahydrofuran-3-yl-6,7-dihydro-4H-pyrazolo[4,3-c]pyridin-5-yl]ethanone]  0.233 µM
19. CC(=O)N1CCc2c(c(Nc3ccc(-c4cnn(C)c4C)cc3F)nn2[C@H]2CCOC2)C1 [Example 284, (S)-1-[3-[4-(1,5-dimethylpyrazol-4-yl)-2-fluoro-anilino]-1-tetrahydrofuran-3-yl-6,7-dihydro-4H-pyrazolo[4,3-c]pyridin-5-yl]ethanone]  0.36 µM
20. CC(=O)N1CCc2c(c(Nc3ccc(-c4cn(C)nc4C(F)(F)F)nc3)nn2C)C1 [Example 36, 1-(1-methyl-3-((6-(1-methyl-3-(trifluoromethyl)-1H-pyrazol-4-yl)pyridin-3-yl)amino)-6,7-dihydro-1H-pyrazolo[4,3-c]pyridin-5(4H)-yl)ethanone]  0.39 µM
21. CC(=O)N1CCc2c(c(Nc3cccc(-c4cnn(C)c4)c3C#N)nn2CC2CC2)C1 [Example 41, 2-[[5-acetyl-1-(cyclopropylmethyl)-6,7-dihydro-4H-pyrazolo[4,3-c]pyridin-3-yl]amino]-6-(1-methylpyrazol-4-yl)benzonitrile]  0.49 µM
22. CC(=O)N1CCc2c(c(N3CC4(CC4)c4cc(-c5cnn(C)c5)ccc43)nn2C)C1 [Example 176, 1-[1-methyl-3-[5′-(1-methylpyrazol-4-yl)spiro[cyclopropane-1,3′-indoline]-1′-yl]-6,7-dihydro-4H-pyrazolo[4,3-c]pyridin-5-yl]ethanone]  0.523 µM
23. CC(=O)N1CCc2c(c(Nc3ccc(-c4cncs4)cc3)nn2C)C1 [Example 110, 1-[3-[3-methyl-6-(1-methylpyrazol-4-yl)-3,4-dihydro-2H-quinolin-1-yl]-1-tetrahydrofuran-3-yl-6,7-dihydro-4H-pyrazolo[4,3-c]pyridin-5-yl]ethanone]  0.63 µM
24. CC(=O)N1CCc2c(c(N3CCCc4cc(-c5cnn(C)c5)ccc43)nn2C2CCCCO2)C1 (stereo not shown) [Example 72, 1-[3-[6-(1-methylpyrazol-4-yl)-3,4-dihydro-2H-quinolin-1-yl]-1-tetrahydropyran-2-yl-6,7-dihydro-4H-pyrazolo[4,3-c]pyridin-5-yl]ethanone]  0.681 µM
25. CCOc1ccc(-c2ccc3c(c2)CCCN3c2nn([C@H]3CCOC3)c3c2CN(C(C)=O)CC3)cn1 [Example 51, 1-[3-[6-(6-ethoxy-3-pyridyl)-3,4-dihydro-2H-quinolin-1-yl]-1-[(3S)-tetrahydrofuran-3-yl]-6,7-dihydro-4H-pyrazolo[4,3-c]pyridin-5-yl]ethanone]  0.729 µM
26. CC(=O)N1CCc2c(c(N3CCc4cc(-c5cnn(C)c5)ccc43)nn2[C@@H]2CCOC2)C1 [Example 177, (R)-1-[3-[5-(1-methylpyrazol-4-yl)indolin-1-yl]-1-tetrahydrofuran-3-yl-6,7-dihydro-4H-pyrazolo[4,3-c]pyridin-5-yl]ethanone]  0.892 µM
27. CC(=O)N1CCc2c(c(N3CCCc4cc(-c5cnn(C)c5)c(F)cc43)nn2C2COC2)C1 [Example 144, 1-[3-[7-fluoro-6-(1-methylpyrazol-4-yl)-3,4-dihydro-2H-quinolin-1-yl]-1-(oxetan-3-yl)-6,7-dihydro-4H-pyrazolo[4,3-c]pyridin-5-yl]ethanone]  1.02 µM
28. CC(=O)N1CCc2c(c(Nc3ccc(-c4cnn(C)c4C)cc3F)nn2CC2COC2)C1 [Example 245, 1-[3-[6-(1-methylpyrazol-4-yl)-7-(trifluoromethyl)-3,4-dihydro-2H-quinolin-1-yl]-1-tetrahydropyran-4-yl-6,7-dihydro-4H-pyrazolo[4,3-c]pyridin-5-yl]ethanone]  3.47 µM
